Laboratory results published in PMC6748027.
Results are given in words; binding and its absence hold for the method and conditions named. In cells and extracts the contact can be indirect. Some entries that bind do so weakly or less than the wild type. For part of these data: Sequences can lack the tags named with a protein. Values belong to the binder of their own block, whether it stands above or below them.

Amino acid sequences for entries named in this document (tags omitted).
UniProt O80480: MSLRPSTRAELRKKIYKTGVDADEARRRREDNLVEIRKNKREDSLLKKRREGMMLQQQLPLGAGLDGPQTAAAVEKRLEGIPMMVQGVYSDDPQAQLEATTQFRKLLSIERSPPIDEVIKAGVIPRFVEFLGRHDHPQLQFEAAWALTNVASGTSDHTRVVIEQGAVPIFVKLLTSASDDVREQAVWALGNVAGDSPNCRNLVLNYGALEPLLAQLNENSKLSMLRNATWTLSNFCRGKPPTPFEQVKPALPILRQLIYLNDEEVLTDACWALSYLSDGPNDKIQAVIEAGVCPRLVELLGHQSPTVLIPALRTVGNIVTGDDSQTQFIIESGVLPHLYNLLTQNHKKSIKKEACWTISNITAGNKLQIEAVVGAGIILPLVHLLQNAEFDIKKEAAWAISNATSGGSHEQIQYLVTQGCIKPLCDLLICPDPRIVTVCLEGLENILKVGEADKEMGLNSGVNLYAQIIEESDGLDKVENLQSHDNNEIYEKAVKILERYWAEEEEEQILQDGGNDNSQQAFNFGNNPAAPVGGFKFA
UniProt O04294: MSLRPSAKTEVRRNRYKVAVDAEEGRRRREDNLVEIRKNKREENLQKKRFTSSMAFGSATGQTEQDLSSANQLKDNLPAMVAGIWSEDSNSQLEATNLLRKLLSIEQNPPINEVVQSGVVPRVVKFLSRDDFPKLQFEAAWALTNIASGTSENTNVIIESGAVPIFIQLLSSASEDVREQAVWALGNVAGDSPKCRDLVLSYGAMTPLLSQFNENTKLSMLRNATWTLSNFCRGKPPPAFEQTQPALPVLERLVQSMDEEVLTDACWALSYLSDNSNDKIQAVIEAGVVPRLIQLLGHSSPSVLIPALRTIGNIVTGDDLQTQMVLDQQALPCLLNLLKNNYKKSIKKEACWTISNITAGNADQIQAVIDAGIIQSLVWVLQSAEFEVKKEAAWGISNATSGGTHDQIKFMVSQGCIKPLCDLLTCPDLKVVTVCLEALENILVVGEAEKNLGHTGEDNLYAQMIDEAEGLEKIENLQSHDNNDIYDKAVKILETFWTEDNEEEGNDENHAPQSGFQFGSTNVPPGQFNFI

Key:
[1] = target: IMPA4-cYFP (Arabidopsis thaliana) (UniProt O80480); assay: split reporter; BiFC: nYFP and cYFP fusions co-expressed transiently in N. benthamiana leaves; confocal microscopy two days after infiltration
[2] = target: T1, IMPA6-cYFP (Arabidopsis thaliana) (UniProt Q9FWY7); assay: as above
T1 sequence: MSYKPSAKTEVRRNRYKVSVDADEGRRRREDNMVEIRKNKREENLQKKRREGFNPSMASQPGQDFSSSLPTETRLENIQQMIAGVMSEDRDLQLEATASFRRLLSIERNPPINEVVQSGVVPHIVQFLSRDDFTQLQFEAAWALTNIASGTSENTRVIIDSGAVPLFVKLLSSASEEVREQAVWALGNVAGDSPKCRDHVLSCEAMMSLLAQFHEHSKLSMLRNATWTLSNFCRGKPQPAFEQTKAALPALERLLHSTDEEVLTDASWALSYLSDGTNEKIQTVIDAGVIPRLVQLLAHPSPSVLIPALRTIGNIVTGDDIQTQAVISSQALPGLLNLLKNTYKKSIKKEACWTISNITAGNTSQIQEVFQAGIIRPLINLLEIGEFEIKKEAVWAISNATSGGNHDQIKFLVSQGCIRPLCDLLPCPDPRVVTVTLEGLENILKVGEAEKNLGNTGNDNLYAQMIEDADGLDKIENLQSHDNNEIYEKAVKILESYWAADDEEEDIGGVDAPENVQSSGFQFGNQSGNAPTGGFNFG

[3] = target: IMPA3-cYFP (Arabidopsis thaliana) (UniProt O04294); assay: as above
[4] = target: T2, GFP-IMPA6 (Arabidopsis thaliana) (UniProt Q9FWY7); assay: co-IP; extracts of N. benthamiana leaves infiltrated with the constructs; GFP-Trap agarose beads, 4 °C, 3 h; 50 mM Tris-HCl pH 7.5, 150 mM NaCl, 2 mM DTT, washes with 0.5% TX-100; immunoblot with anti-GFP and anti-RFP
T2 sequence: T1 sequence

[5] = target: GFP-IMPA4 (Arabidopsis thaliana) (UniProt O80480); assay: as above

- binding [1]: no binding
B1: nYFP-IYO_(ΔNLSAB) (protein, UniProt Q8GYU3)
chain: MEQSSGRVNPEQPNNVLASLVGSIVEKGISENKPPSKPLPPRPSLLSFPVARHRSHGPHLAPVGSSIAQPKDYNDDQEEEEAEERFMNADSIAAFAKPLQRKEKKDMDLGRWKDMVSGDDPASTHVPQQSRKLKIIETRPPYVASADAATTSSNTLLAARASDQREFVSDKAPFIKNLGTKERVPLNASPPLAVSNGLGTRHASSSLESDIDVENHAKLQTMSPDEIAEAQAELLDKMDPALLSILKKRGEAKSVQGVSITDETAKNSRTEGHFVTPKVMAIPKEKSVVQKPGIAQGFVWDAWTERVEAARDLRFSFDGNVVEEDVVSPAETGGKWSGVESAAERDFLRTEGDPGAAGYTIKEAIALARSVIPGQRCLALHLLASVLDKALNKLCQSRIGYAREEKDKSTDWEAIWAYALGPEPELVLALRMALDDNHASVVIACVKVIQCLLSCSLNENFFNILENMGPHGKDIFTASVFRSKPEIDLGFLRGCYWKYSAKPSNIVAFREEILDDGTEDTDTIQKDVFVAGQDVAAGLVRMDILPRIYHLLETEPTAALEDSIISVTIAIARHSPKCTTAILKYPKFVQTIVKRFQLNKRMDVLSSQINSVRLLKVLARYDQSTCMEFVKNGTFNAVTWHLFQFTSSLDSWVKLGKQNCKLSSTLMVEQLRFWKVCIHSGCCVSRFPELFPALCLWLSCPSFEKLREKNLISEFTSVSNEAYLVLEAFAETLPNMYSQNIPRNESGTWDWSYVSPMIDSALSWITLAPQLLKWEKGIESVSVSTTTLLWLYSGVMRTISKVLEKISAEGEEEPLPWLPEFVPKIGLAIIKHKLLSFSVADVSRFGKDSSRCSSFMEYLCFLRERSQDDELALASVNCLHGLTRTIVSIQNLIESARSKMKAPHQVSISTGDESVLANGILAESLAELTSVSCSFRDSVSSEWPIVQSIELHKRGGLAPGVGLGWGASGGGFWSTRVLLAQAGAGLLSLFLNISLSDSQNDQGSVGFMDKVNSALAMCLIAGPRDYLLVERAFEYVLRPHALEHLACCIKSNKKNISFEWECSEGDYHRMSSMLASHFRHRWLQQKGRSIAEEGVSGVRKGTVGLETIHEDGEMSNSSTQDKKSDSSTIEWAHQRMPLPPHWFLSAISAVHSGKTSTGPPESTELLEVAKAGVFFLAGLESSSGFGSLPSPVVSVPLVWKFHALSTVLLVGMDIIEDKNTRNLYNYLQELYGQFLDEARLNHRDTELLRFKSDIHENYSTFLEMVVEQYAAVSYGDVVYGRQVSVYLHQCVEHSVRLSAWTVLSNARVLELLPSLDKCLGEADGYLEPVEENEAVLEAYLKSWTCGALDRAATRGSVAYTLVVHHFSSLVFCNQAKDKVSLRNKIVKTLVRDLSGSANAMEEEVIAAETEKRMEVLKEGCEGNSTLLLELEKLKSAALCGRR

- binding [1]: binds
- binding [2]: no binding
- binding [3]: no binding
B2: nYFP-IYO (Arabidopsis MINIYO fused to the N-terminal half of YFP) (protein, UniProt Q8GYU3 1-1465)
chain: MEQSSGRVNPEQPNNVLASLVGSIVEKGISENKPPSKPLPPRPSLLSFPVARHRSHGPHLAPVGSSIAQPKDYNDDQEEEEAEERFMNADSIAAFAKPLQRKEKKDMDLGRWKDMVSGDDPASTHVPQQSRKLKIIETRPPYVASADAATTSSNTLLAARASDQREFVSDKAPFIKNLGTKERVPLNASPPLAVSNGLGTRHASSSLESDIDVENHAKLQTMSPDEIAEAQAELLDKMDPALLSILKKRGEAKLKKRKHSVQGVSITDETAKNSRTEGHFVTPKVMAIPKEKSVVQKPGIAQGFVWDAWTERVEAARDLRFSFDGNVVEEDVVSPAETGGKWSGVESAAERDFLRTEGDPGAAGYTIKEAIALARSVIPGQRCLALHLLASVLDKALNKLCQSRIGYAREEKDKSTDWEAIWAYALGPEPELVLALRMALDDNHASVVIACVKVIQCLLSCSLNENFFNILENMGPHGKDIFTASVFRSKPEIDLGFLRGCYWKYSAKPSNIVAFREEILDDGTEDTDTIQKDVFVAGQDVAAGLVRMDILPRIYHLLETEPTAALEDSIISVTIAIARHSPKCTTAILKYPKFVQTIVKRFQLNKRMDVLSSQINSVRLLKVLARYDQSTCMEFVKNGTFNAVTWHLFQFTSSLDSWVKLGKQNCKLSSTLMVEQLRFWKVCIHSGCCVSRFPELFPALCLWLSCPSFEKLREKNLISEFTSVSNEAYLVLEAFAETLPNMYSQNIPRNESGTWDWSYVSPMIDSALSWITLAPQLLKWEKGIESVSVSTTTLLWLYSGVMRTISKVLEKISAEGEEEPLPWLPEFVPKIGLAIIKHKLLSFSVADVSRFGKDSSRCSSFMEYLCFLRERSQDDELALASVNCLHGLTRTIVSIQNLIESARSKMKAPHQVSISTGDESVLANGILAESLAELTSVSCSFRDSVSSEWPIVQSIELHKRGGLAPGVGLGWGASGGGFWSTRVLLAQAGAGLLSLFLNISLSDSQNDQGSVGFMDKVNSALAMCLIAGPRDYLLVERAFEYVLRPHALEHLACCIKSNKKNISFEWECSEGDYHRMSSMLASHFRHRWLQQKGRSIAEEGVSGVRKGTVGLETIHEDGEMSNSSTQDKKSDSSTIEWAHQRMPLPPHWFLSAISAVHSGKTSTGPPESTELLEVAKAGVFFLAGLESSSGFGSLPSPVVSVPLVWKFHALSTVLLVGMDIIEDKNTRNLYNYLQELYGQFLDEARLNHRDTELLRFKSDIHENYSTFLEMVVEQYAAVSYGDVVYGRQVSVYLHQCVEHSVRLSAWTVLSNARVLELLPSLDKCLGEADGYLEPVEENEAVLEAYLKSWTCGALDRAATRGSVAYTLVVHHFSSLVFCNQAKDKVSLRNKIVKTLVRDLSRKRHREGMMLDLLRYKKGSANAMEEEVIAAETEKRMEVLKEGCEGNSTLLLELEKLKSAALCGRR

- binding [4]: no binding
- binding [5]: binds
B3: IYO-RFP (protein, UniProt Q8GYU3 1-1465)
chain: B2 chain
